From the supplement of paper PMC4723716 come the findings set out here.

Over roughly 3,600 compounds, “viability index relative to DMSO control” has its median near 0.81; the lowest 2% begin near 0.13. This is one part of the list.
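Note: 384-well serum-free SaLSSA: MitoTracker Red CMXRos staining with saponin lysis, high-content imaging, treated-well particle count divided by plate-mean count of DMSO wells.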

This experiment concerns Plasmodium falciparum NF54 stage V gametocytes. Description: viability index relative to DMSO control (fraction); higher = less gametocyte killing. The conditions noted are these: 1.25 µM, incubation time: 72 h.
Consider `C=CC1(C)CC23CC(C(OC(=O)c4ccccc4)c4ccnc5ccccc45)N2CCC13` (stereo not given), for which the viability index turned out to be 0.779. In the case of `CC(C)c1ccc(C=CC(=O)NCc2ccco2)cc1` it was 0.694; in that of `CC1(C)Cc2c(oc3ncn(CCn4cnc5oc6c(c5c4=N)CC(C)(C)SC6)c(=N)c23)CS1`, 0.748; in that of `CC[n+]1cccc2ccc3cccnc3c21`, 0.601.

The compound `Cc1ccc(-c2c3c(nc4sc(C(=O)Nc5ccc(F)cc5)c(N)c24)CCC3)cc1` had a viability index of 0.636. `Cc1cccc(-n2c(CNC(=O)c3ccc(S(=O)(=O)N4CCCCC4)cc3)nnc2SCC(=O)Nc2nccs2)c1`: the viability index amounted to 1.06. Turning to `Cc1nnc2sc(SCc3ccc([N+](=O)[O-])cc3)nn2c1=O`, the viability index is 0.735.

Consider `CCOC(=O)C(=CNc1ccccc1[N+](=O)[O-])C(=O)OCC`, for which the viability index stood at 0.954. In the case of `COc1cc(CNCCCN(C)C)ccc1OCc1ccc(F)cc1Cl` it was 0.323; in that of `COC(=O)c1c(-c2c(F)cccc2Cl)noc1C=CNc1ccc(OC)cc1`, 1.03; in that of `CC(C)c1ccc(OCC(=O)NN=Cc2cccc([N+](=O)[O-])c2)cc1`, 1.1. Turning to `COc1cccc2c1C(=O)c1c(O)c3c(c(O)c1C2=O)CC(O)(C(=O)CO)CC3OC1CC(N)C(O)C(C)O1` (stereo not given), the viability index came out at 0.192. The compound `c1ccc2cc3c(Nc4ccc(N5CCCCC5)cc4)ccnc3cc2c1` showed a viability index of 0.838. Turning to `CCOC(=O)CCCCC(=O)c1[nH]c(=O)[nH]c1Cn1ccnc1`, the viability index was 0.354. With `CC(C)CCNCC(O)Cn1c2ccc(Cl)cc2c2cc(Cl)ccc21` (stereo not given), the viability index came to 0.286. On to `O=C(NCCCN1CCCC1=O)C(=O)NCC(c1ccco1)N1CCOCC1` (stereo not given), for which the viability index was found to be 0.975. `COc1ccc(-n2nc(C(=O)NCC(=O)NCCCN3CCOCC3)c3ccccc3c2=O)cc1Cl` came in with a viability index of 0.819. In the case of `COc1cc(C=C(C#N)c2nc3ccccc3[nH]2)ccc1OCc1ccc(Cl)cc1` it was 1.05. In the case of `CCn1c2ccccc2c2cc(C=NNC(=O)c3nnn(-c4nonc4N)c3-c3ccccc3)ccc21` it was 1.28; in that of `COc1ccc(C=C2SC(=Nc3ccccc3)NC2=O)cc1`, 0.634; in that of `CCC(=O)Nc1ccc2nc(SCC(=O)Nc3ccc(C(C)=O)cc3)sc2c1`, 0.966. `COc1ccc(OCCOCCN2CCN(C)CC2)cc1`: the viability index came to 0.963. In turn, `COc1ccc(-n2c(SC(C)C)nc3sc4c(c3c2=O)CCN(C)C4)cc1` came in with a viability index of 0.623. `OC(CNC1CCCCC1)Cn1c2ccc(Cl)cc2c2cc(Cl)ccc21` (stereo not given) gave a viability index of 0.378. Under `O=C(Cc1ccccc1)NC(c1ccccc1)c1ccc2cccnc2c1O` (stereo not given) stands 1.19.
